The other results are listed elsewhere or left out. The full chains were built here from the parent and the listed change. Values near 0.05 are background.
B1: TEV protease; numbered along this chain (parent)
chain: MGESLFKGPRDYNPISSSICHLTNESDGHTTSLYGIGFGPFIITNKHLFRRNNGTLVVQSLHGVFKVKDTTTLQQHLVDGRDMIIIRMPKDFPPFPQKLKFREPQREERICLVTTNFQTKSMSSMVSDTSCTFPSGDGIFWKHWIQTKDGQCGSPLVSTRDGFIVGIHSASNFTNTNNYFTSVPKNFMELLTNQEAQQWVSGWRLNADSVLWGGHKVFMVKPEEPFQPVKEATQL

Variants of: B1
Test: raw area under fraction-flipped curve 0-4 h after induction (AUC4h, not background-subtracted), DNA-recorder readout of cleavage of the substrate (dimensionless); higher = more cleavage of the substrate by the protease variant
Conditions: temperature: 34 °C; time window: 0-4 h after rhamnose induction
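Further: Bxb1 expression induced with 0.2% (w/v) L-rhamnose at OD600 near 0.5, cultures sampled hourly, flipped fraction per protease–substrate barcode pair counted by paired-end Illumina sequencing.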

Variant | area with substrate ENLYFDS | area with substrate ENLYFES | area with substrate ENLYFFS | area with substrate ENLYFHS | area with substrate ENLYFIS | area with substrate ENLYFKS | area with substrate ENLYFMS | area with substrate ENLYFSS | area with substrate ENLYFTS | area with substrate ENLYFWS | area with substrate ENLYFYS | area with substrate ENLYFLS | area with substrate ENLYFNS | area with substrate ENLYFPS | area with substrate ENLYFVS | area with substrate ENLYFGS | area with substrate ENLYFRS
MGESLFKGPRDYNPISSSICHLTNESDGHTTSLYGIGFGPFIITNKHLFRRNNGTLVVQSLHGVFKVKDTTTLQQHLVDGRDMIIIRMPKDFPPFPQKLKFREPQREERICLVTTNFQTKSMSSMVSDTSCTFPSGDGIFWKHWIQTKDGQCGSPLVSTRDGFIVGIHSASNFTNTNNYFTSVPKNFMELLTNQEAQQWVSGWRLNADSVLWGGHKVFMVKMEEPFQPVKEATQL [P222M] | 0.0512 | 0.0504 | 0.0578 | 0.0557 | 0.0449 | 0.0603 | 0.056 | 0.0609 | 0.0587 | 0.0342 | 0.0579 |  |  |  |  |  | 
MGESLFKGPRDYNPISSSICHLTNESDGHTTSLYGIGFGPFIITNKHLFRRNNGTLVVQSLHGVFKVKDTTTLQQHLVDGRDMIIIRMPKDFPPFPQKLKFREPQREERICLVTTNFQTKSMSSMVSDTSCTFPSGDGIFWKHWIQTKDGQCGSPLVSTRDGFIVGIHSASNFTNTNNYFTSVPKNFMELLTNQEAQQWVSGWRLNADSVLWGGHKVFMVKGEEPFQPVKEATQL [P222G] | 0.0495 | 0.0623 | 0.0703 |  | 0.0778 | 0.0634 |  |  |  | 0.0547 | 0.0593 | 0.0637 | 0.0652 | 0.0579 | 0.0836 |  | 
MGESLFKGPRDYNPISSSICHLTNESDGHTTSLYGIGFGPFIITNKHLFRRFNGTLVVQSLHGVFKVKDTTTLQQHLVDGRDMIIIRMPKDFPPFPQKLKFREPQREERICLVTTNFQTKSMSSMVSDTSCTFPSGDGIFWKHWIQTKDGQCGSPLVSTRDGFIVGIHSASNFTNTNNYFTSVPKNFMELLTNQEAQQWVSGWRLNADSVLWGGHKVFMVKPEEPFQPVKEATQL [N52F] | 0.0583 |  | 0.0811 | 0.0683 | 0.0538 | 0.0722 | 0.0567 | 0.0615 | 0.056 | 0.0561 | 0.0605 | 0.0702 | 0.065 | 0.0537 | 0.0511 | 0.0752 | 
MGESLFKGPRDYNPISSSICHLTNESDGHTTSLYGIGFGPFIITNKHLFRRTNGTLVVQSLHGVFKVKDTTTLQQHLVDGRDMIIIRMPKDFPPFPQKLKFREPQREERICLVTTNFQTKSMSSMVSDTSCTFPSGDGIFWKHWIQTKDGQCGSPLVSTRDGFIVGIHSASNFTNTNNYFTSVPKNFMELLTNQEAQQWVSGWRLNADSVLWGGHKVFMVKPEEPFQPVKEATQL [N52T] | 0.0555 | 0.0546 | 0.0655 |  | 0.0605 | 0.0631 | 0.0657 | 0.0461 |  | 0.09 | 0.0575 | 0.0509 | 0.0718 | 0.0577 |  |  | 0.0517
MGESLFKGPRDYNPISSSICHLTNESDGHTTSLYGIGFGPFIITNKHLFRRNNGTLVVQSLHGVFKVKDTTTLQQHLVDGRDMIIIRMPKDFPPFPQKLKFREPQREERICLVTTNFQTKSMSSMVSDTSCTFPSGDGIFWKHWIQTKDGQCGSPLVSTRDGFIVGIHSASNFTNTNNYFTSVPKNFMELLTNQEAQQWVSGWRLNADSKLWGGHKVFMVKPEEPFQPVKEATQL [V210K] | 0.0552 | 0.0594 | 0.055 |  | 0.057 |  |  | 0.0558 | 0.0611 | 0.0544 | 0.064 |  |  | 0.0611 | 0.0584 |  | 0.0588
MGESLFKGPRDYNPISSSICHLTNESDGHTTSLYGIGFGPFIITNKHLFRRNNGTLVVQSLHGVFKVKDTTTLQQHLVDGRDMIIIRMPKDFPPFPQKLKFREPQREERICLVTTNFQTKSMSSMVSDTSCTFPDGDGIFWKHWIQTKDGQCGSPLVSTRDGFIVGIHSASNFTNTNNYFTSVPKNFMELLTNQEAQQWVSGWRLNADSVLWGGHKVFMVKPEEPFQPVKEATQL [S135D] | 0.0505 |  | 0.0759 | 0.0642 | 0.0484 |  |  | 0.0585 | 0.0593 | 0.0574 | 0.0454 | 0.0685 | 0.0706 | 0.0558 |  | 0.0463 | 0.0603
MGESLFKGPRDYNPISSSICHLTNESDGHTTSLYGIGFGPFIITNKHLFRRNNGTLVVQSLHGVFKVKDTTTLQQHLVDGRDMIIIRMPKDFPPFPQKLKFREPQREERICLVTTNFQTKSMSSMVSDTSCTFPIGDGIFWKHWIQTKDGQCGSPLVSTRDGFIVGIHSASNFTNTNNYFTSVPKNFMELLTNQEAQQWVSGWRLNADSVLWGGHKVFMVKPEEPFQPVKEATQL [S135I] | 0.059 | 0.0605 | 0.0674 | 0.0494 | 0.0545 | 0.0483 | 0.0629 | 0.0612 |  | 0.0771 | 0.0624 | 0.0624 |  | 0.0596 |  |  | 
MGESLFKGPRDYNPISSSICHLTNESDGHTTSLYGIGFGPFIITNKHLFRRNNGTLVVQSLHGVFKVKDTTTLQQHLVDGRDMIIIRMPKDFPPFPQKLKFREPQREERICLVTTNFQTKSMSSMVSDTSCTFPSPDGIFWKHWIQTKDGQCGSPLVSTRDGFIVGIHSASNFTNTNNYFTSVPKNFMELLTNQEAQQWVSGWRLNADSVLWGGHKVFMVKPEEPFQPVKEATQL [G136P] | 0.0627 | 0.0752 | 0.0256 | 0.0511 |  |  | 0.0596 |  | 0.0604 |  | 0.06 |  |  |  |  |  | 0.0862
MGESLFKGPRDYNPISSSICHLTNESDGHTTSLYGIGFGPFIITNKHLFRRNNGTLVVQSLHGVFKVKDTTTLQQHLVDGRDMIIIRMPKDFPPFPQKLKFREPQREERICLVTTNFQTKAMSSMVSDTSCTFPSGDGIFWKHWIQTKDGQCGSPLVSTRDGFIVGIHSASNFTNTNNYFTSVPKNFMELLTNQEAQQWVSGWRLNADSVLWGGHKVFMVKPEEPFQPVKEATQL [S121A] | 0.0459 | 0.0662 | 0.073 |  | 0.0528 |  | 0.0646 | 0.058 | 0.0686 | 0.0497 |  | 0.0736 |  | 0.0573 | 0.0688 |  | 

Reference: the supplement of paper PMC12217912
